Some of the results follow.
Key:
[1] = system: HSkMC (human skeletal muscle cells); assay: cytotoxicity call (relative viability < 0.9); details: 10 µM
[2] = system: HepG2; assay: cytotoxicity call (relative viability < 0.9); details: 10 µM
[3] = system: S. aureus RN4220; assay: growth inhibition call (relative growth <= 0.2); details: 50 µM

COc1ccccc1-c1cnc2c(c1)C(=O)N([C@H](C)CO)C[C@@H](C)[C@@H](CN(C)C(=O)c1cccnc1)O2
inactive: cytotoxicity call [1] | cytotoxicity call [2] | growth inhibition call [3]

Cc1noc(C)c1NC(=O)Nc1ccc2c(c1)C(=O)N([C@@H](C)CO)C[C@@H](C)[C@H](CN(C)Cc1ccc(C(F)(F)F)cc1)OCCCC[C@H](C)O2
inactive: cytotoxicity call [1] | cytotoxicity call [2] | growth inhibition call [3]

C[C@@H]1CN([C@@H](C)CO)C(=O)c2cc(NC(=O)Nc3cccc4ccccc34)ccc2O[C@H]1CN(C)S(=O)(=O)c1ccccc1
inactive: cytotoxicity call [1] | cytotoxicity call [2] | growth inhibition call [3]

COc1ccc(S(=O)(=O)Nc2cccc3c2O[C@@H](CN(C)S(=O)(=O)c2ccc(C)cc2)[C@H](C)CN([C@@H](C)CO)C3=O)cc1
inactive: cytotoxicity call [1] | cytotoxicity call [2] | growth inhibition call [3]

C[C@@H]1CN([C@H](C)CO)C(=O)Cc2cc(NS(=O)(=O)c3ccc(F)cc3)ccc2O[C@@H]1CN(C)C(=O)Nc1cccc2ccccc12
inactive: cytotoxicity call [1] | cytotoxicity call [2] | growth inhibition call [3]

Source: the antibiotic and cytotoxicity screens of Wong et al. (2023)
